Measured values as given in the supplement of paper PMC8728848.
This is one part of the list.

Key:
Assay in all cases: glycan array binding signal (z-score within array); higher = stronger binding
Conditions in all cases: glycan notation: IUPAC condensed, linker removed
[1] = molecular target: Neu5Ac(a2-3)Gal6S(b1-4)[Fuc(a1-3)]GlcNAc
Outline: (§1)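 Arrays were curated from the Consortium for Functional Glycomics database, 3228 in total, and kept only where the protein sequence was available. Binding is expressed as a within-array Z-score. This score was averaged across arrays of the same protein sequence at different concentrations or buffers and across linkers, and negative values can be read as non-binding.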

Neu5Ac(a2-3)GalNAc = molecular target: Neu5Ac(a2-3)GalNAc
Outline: as §1

[2] = molecular target: Neu5Ac(a2-3)GalNAc(b1-4)GlcNAc
Outline: as §1

[3] = molecular target: Neu5Ac(a2-3)[GalNAc(b1-4)]Gal(b1-4)Glc
Outline: as §1

[4] = molecular target: Neu5Ac(a2-3)[GalNAc(b1-4)]Gal(b1-4)GlcNAc
Outline: as §1

[5] = molecular target: Neu5Ac(a2-3)[Neu5Ac(a2-6)]GalNAc
Outline: as §1

Neu5Ac(a2-6)Gal = molecular target: Neu5Ac(a2-6)Gal
Outline: as §1

Neu5Ac(a2-6)Gal(b1-4)Glc = molecular target: Neu5Ac(a2-6)Gal(b1-4)Glc
Outline: as §1

[6] = molecular target: Neu5Ac(a2-6)Gal(b1-4)GlcNAc
Outline: as §1

[7] = molecular target: Neu5Ac(a2-6)Gal(b1-4)GlcNAc(b1-2)Man(a1-3)[Gal(b1-4)GlcNAc(b1-2)Man(a1-6)]Man(b1-4)GlcNAc(b1-4)GlcNAc
Outline: as §1

[8] = molecular target: Neu5Ac(a2-6)Gal(b1-4)GlcNAc(b1-2)Man(a1-3)[GlcNAc(b1-2)Man(a1-6)]Man(b1-4)GlcNAc(b1-4)GlcNAc
Outline: as §1

[9] = molecular target: Neu5Ac(a2-6)Gal(b1-4)GlcNAc(b1-2)Man(a1-3)[GlcNAc(b1-2)Man(b1-4)GlcNAc(b1-2)Man(a1-6)]Man(b1-4)GlcNAc(b1-4)GlcNAc
Outline: as §1

[10] = molecular target: Neu5Ac(a2-6)Gal(b1-4)GlcNAc(b1-2)Man(a1-3)[Neu5Ac(a2-6)Gal(b1-4)GlcNAc(b1-2)Man(a1-6)]Man(b1-4)GlcNAc(b1-4)GlcNAc
Outline: as §1

[11] = molecular target: Neu5Ac(a2-6)Gal(b1-4)GlcNAc(b1-2)Man(a1-6)[Gal(b1-4)GlcNAc(b1-2)Man(a1-3)]Man(b1-4)GlcNAc(b1-4)GlcNAc
Outline: as §1

[12] = molecular target: Neu5Ac(a2-6)Gal(b1-4)GlcNAc(b1-2)Man(a1-6)[GlcNAc(b1-2)Man(a1-3)]Man(b1-4)GlcNAc(b1-4)GlcNAc
Outline: as §1

[13] = molecular target: Neu5Ac(a2-6)Gal(b1-4)GlcNAc(b1-3)Gal(b1-4)GlcNAc
Outline: as §1

[14] = molecular target: Neu5Ac(a2-6)Gal(b1-4)GlcNAc(b1-3)Gal(b1-4)[Fuc(a1-3)]GlcNAc(b1-3)Gal(b1-4)[Fuc(a1-3)]GlcNAc
Outline: as §1

[15] = molecular target: Neu5Ac(a2-6)Gal(b1-4)GlcNAc6S
Outline: as §1

Neu5Ac(a2-6)GalNAc = molecular target: Neu5Ac(a2-6)GalNAc
Outline: as §1

[16] = molecular target: Neu5Ac(a2-6)GalNAc(b1-4)GlcNAc
Outline: as §1

Neu5Ac(a2-8)Neu5Ac = molecular target: Neu5Ac(a2-8)Neu5Ac
Outline: as §1

[17] = molecular target: Neu5Ac(a2-8)Neu5Ac(a2-3)Gal(b1-4)Glc
Outline: as §1

[18] = molecular target: Neu5Ac(a2-8)Neu5Ac(a2-3)[GalNAc(b1-4)]Gal(b1-4)Glc
Outline: as §1

[19] = molecular target: Neu5Ac(a2-8)Neu5Ac(a2-8)Neu5Ac
Outline: as §1

[20] = molecular target: Neu5Ac(a2-8)Neu5Ac(a2-8)Neu5Ac(a2-3)Gal(b1-4)Glc
Outline: as §1

[21] = molecular target: Neu5Ac(a2-8)Neu5Ac(a2-8)Neu5Ac(a2-3)[GalNAc(b1-4)]Gal(b1-4)Glc
Outline: as §1

[22] = molecular target: Neu5Ac(a2-8)Neu5Ac(a2-8)Neu5Ac(a2-8)Neu5Ac(a2-3)[GalNAc(b1-4)]Gal(b1-4)Glc
Outline: as §1

[23] = molecular target: Neu5Ac(b2-6)Gal(b1-4)GlcNAc
Outline: as §1

Neu5Ac(b2-6)GalNAc = molecular target: Neu5Ac(b2-6)GalNAc
Outline: as §1

[24] = molecular target: Neu5Ac9Ac(a2-6)Gal(b1-4)GlcNAc
Outline: as §1

[25] = molecular target: Neu5Gc(a2-3)Gal(b1-3)GlcNAc
Outline: as §1

[26] = molecular target: Neu5Gc(a2-3)Gal(b1-3)[Fuc(a1-4)]GlcNAc
Outline: as §1

Neu5Gc(a2-3)Gal(b1-4)Glc = molecular target: Neu5Gc(a2-3)Gal(b1-4)Glc
Outline: as §1

[27] = molecular target: Neu5Gc(a2-3)Gal(b1-4)GlcNAc
Outline: as §1

[28] = molecular target: Neu5Gc(a2-3)Gal(b1-4)[Fuc(a1-3)]GlcNAc
Outline: as §1

[29] = molecular target: Neu5Gc(a2-6)Gal(b1-4)GlcNAc
Outline: as §1

Neu5Gc(a2-6)GalNAc = molecular target: Neu5Gc(a2-6)GalNAc
Outline: as §1

[30] = molecular target: Neu5Gc(b2-6)Gal(b1-4)GlcNAc
Outline: as §1

B1: Langerin CRD (Homo sapiens), Q9UJ71 (protein)
chain: QVVSQGWKYFKGNFYYFSLIPKTWYSAEQFCVSRNSHLTSVTSESEQEFLYKTAGGLIYWIGLTKAGMEGDWSWVDDTPFNKVQSVRFWIPGEPNNAGNNEHCGNIKAPSLQAWNDAPCDKTFLFICKRPYVPSEPSAWSHPQFEK
[1]
  glycan array binding signal (z-score): 0.345
Neu5Ac(a2-3)GalNAc
  glycan array binding signal (z-score): -0.485
[2]
  glycan array binding signal (z-score): -0.602
[3]
  glycan array binding signal (z-score): -0.557
[4]
  glycan array binding signal (z-score): -0.565
[5]
  glycan array binding signal (z-score): -0.541
Neu5Ac(a2-6)Gal
  glycan array binding signal (z-score): -0.522
Neu5Ac(a2-6)Gal(b1-4)Glc
  glycan array binding signal (z-score): -0.592
[6]
  glycan array binding signal (z-score): -0.505
[7]
  glycan array binding signal (z-score): -0.603
[8]
  glycan array binding signal (z-score): -0.263
[9]
  glycan array binding signal (z-score): -0.65
[10]
  glycan array binding signal (z-score): -0.61
[11]
  glycan array binding signal (z-score): -0.59
[12]
  glycan array binding signal (z-score): -0.342
[13]
  glycan array binding signal (z-score): -0.554
[14]
  glycan array binding signal (z-score): -0.586
[15]
  glycan array binding signal (z-score): -0.46
Neu5Ac(a2-6)GalNAc
  glycan array binding signal (z-score): -0.619
[16]
  glycan array binding signal (z-score): -0.552
Neu5Ac(a2-8)Neu5Ac
  glycan array binding signal (z-score): -0.544
[17]
  glycan array binding signal (z-score): -0.565
[18]
  glycan array binding signal (z-score): -0.637
[19]
  glycan array binding signal (z-score): -0.593
[20]
  glycan array binding signal (z-score): -0.636
[21]
  glycan array binding signal (z-score): -0.656
[22]
  glycan array binding signal (z-score): -0.732
[23]
  glycan array binding signal (z-score): -0.367
Neu5Ac(b2-6)GalNAc
  glycan array binding signal (z-score): -0.529
[24]
  glycan array binding signal (z-score): -0.422
[25]
  glycan array binding signal (z-score): -0.539
[26]
  glycan array binding signal (z-score): -0.249
Neu5Gc(a2-3)Gal(b1-4)Glc
  glycan array binding signal (z-score): -0.695
[27]
  glycan array binding signal (z-score): -0.566
[28]
  glycan array binding signal (z-score): -0.635
[29]
  glycan array binding signal (z-score): -0.51
Neu5Gc(a2-6)GalNAc
  glycan array binding signal (z-score): -0.387
[30]
  glycan array binding signal (z-score): -0.263
